Each block holds one binder with its values, some of them ahead of it.
Assays:
[1] = biological target: T1, human CD47 on the cell membrane surface of CD47 positive tumor cells (Raji, NUGC-4, Jurkat) (human, UniProt Q08722); assay: flow cytometry, Jurkat cells
T1 construct: whole, on cells; also called huCD47 on the cell membrane surface; cell surface CD47

[2] = biological target: T2, Human CD47 recombinant protein (Human CD47 His Tag), ACRO Biosystems Cat. No. CD7-H5227 (human, UniProt Q08722 fragment); assay: SPR Biacore T200, method as in Example 14, huCD47 (His tag) in flow
T2 construct: bought protein; also called huCD47-His; huCD47; not shown: His tag
Protocol: (§1) The binding time of the huCD47 to the antibody was 180 s, the dissociation time was 900 s, and the reaction temperature was 25° C. The binding constant ka, the dissociation constant kd and the affinity KD were calculated by FitGlobal using BIAcore 8K Evaluation software (GE Healthcare) according to the 1:1 binding model.

[3] = biological target: T3, huCD47-mFc (AcroBiosystems Cat. No. CD7-H52A5) (human, UniProt Q08722 fragment); assay: ELISA, coated huCD47-mFc
T3 construct: bought protein; also called human CD47 recombinant protein; huCD47 recombinant protein; not shown: mouse Fc (mFc)

[4] = biological target: T2, Human CD47 recombinant protein (Human …); assay: SPR BIAcore 8K, antibody captured by anti-human IgG Fc on CM5, huCD47 (His tag) in flow, 25 C, 1:1 model
Protocol: as §1

[5] = biological target: T4, biotinylated-CD47 (ACRO Biosystems Cat. No. CD7-H82E9) (UniProt Q08722 fragment, biotinylated (site not stated)); assay: competition ELISA; blocked: biotinylated-CD47 binding to coated SIRPα-His
T4 construct: also called CD47 recombinant protein
Protocol: After rinsing 4 times with PBST, 200 μl of PBS+1% BSA was added to each well, blocking for 1 h at room temperature, and rinsing 4 times with PBST. […] The 96-well plate was rinsed 4 times with PBST, 100 μl of Steptavidin-HRP (Invitrogen #434323) diluted 1:2500 was added to each well, and incubated at room temperature for 1 h. After rinsing the 96-well plate four times with PBST, 100 μl of TMB substrate (Cell Signaling, Cat. No. 7004) was added to each well, and after color development at room temperature for 10 mins, 50 μl of stop solution was added to stop the reaction.

- EC50 (read off the curve) [1]: ~0.1 nM
- Kd [2]: 3.59 nM
- koff [2]: 0.00047 s⁻¹
- kon [2]: 131000 M⁻¹ s⁻¹
B1: DX-36699-IgG4 (Fc fusion)
heavy: DVQLQASGGGSVEAGGSLTLSCLASGFYNMRWYRQAPGNERELVARIGIGGSTDYADSVKGRFTISRGNAKNMVHLQMNSLKPEDTAVYYCWGGGYWGQGTQVTVSS[human IgG4 Fc with S228P (EU numbers) cut from this listing]
notes: 39 (human IgG4 hinge to CH3, S228P)

- EC50 (read off the curve) [1]: ~0.2 nM
B2: DX-36699-H21 humanized VHH-Fc fusion bivalent recombinant antibody (IgG4 subtype) (Fc fusion)
heavy: EVQLLESGGGLVQPGGSLRLSCAASGFYNMRWYRQAPGNGLELVARIGIGGSTDYADSVKGRFTISRDNSKNTVYLQMNSLKPEDTAVYYCWGGGYWGQGTLVTVSS[human IgG4 Fc with S228P (EU numbers) cut from this listing]
notes: human IgG4 hinge to CH3, S228P

- EC50 (read off the curve) [1]: ~0.4 nM
B3: DX-36699-H19 humanized VHH-Fc fusion bivalent recombinant antibody (IgG4 subtype) (Fc fusion)
heavy: EVQLLESGGGVVQPGGSLRLSCAASGFYNMRWYRQAPGKGLELVARIGIGGSTDYADSVKGRFTISRDNSKNTVYLQMNSLKPEDTAVYYCWGGGYWGQGTLVTVSS[human IgG4 Fc with S228P (EU numbers) cut from this listing]
notes: as for B2

- EC50 (read off the curve) [1]: ~0.2 nM
- Kd [2]: 5.71 nM
- koff [2]: 0.000855 s⁻¹
- kon [2]: 150000 M⁻¹ s⁻¹
B4: DX-36699-H20 humanized VHH-Fc fusion bivalent recombinant antibody (IgG4 subtype) (Fc fusion)
heavy: EVQLVESGGGLVQPGGSLRLSCAASGFYNMRWYRQAPGKGLELVARIGIGGSTDYADSVKGRFTISRDNSKNTVYLQMNSLKPEDTAVYYCWGGGYWGQGTLVTVSS[human IgG4 Fc with S228P (EU numbers) cut from this listing]
notes: as for B2

- EC50 (read off the curve) [1]: ~0.6 nM
B5: DX-36699-H7 humanized VHH-Fc fusion bivalent recombinant antibody (IgG4 subtype) (Fc fusion)
heavy: EVQLLESGGGLVQPGGSLRLSCAASGFYNMRWYRQAPGNGLELVARIGIGGSTDYADSVKGRFTISRDNSKNTVYLQMNSLRAEDTAVYYCWGGGYWGQGTLVTVSS[human IgG4 Fc with S228P (EU numbers) cut from this listing]
notes: as for B2

- EC50 (read off the curve) [3]: ~3 ng/mL
- Kd [4]: 0.454 nM
- koff [4]: 5.67e-05 s⁻¹
- kon [4]: 125000 M⁻¹ s⁻¹
- IC50 (read off the curve) [5]: ~400 ng/mL
B6: DX-36699-IgG1 (DX-36699 VHH-Fc fusion antibody) (Fc fusion)
heavy: DVQLQASGGGSVEAGGSLTLSCLASGFYNMRWYRQAPGNERELVARIGIGGSTDYADSVKGRFTISRGNAKNMVHLQMNSLKPEDTAVYYCWGGGYWGQGTQVTVSS[human IgG1 Fc cut from this listing]
notes: bivalent VHH-Fc, human IgG1 hinge to CH3

- EC50 (read off the curve) [3]: ~3 ng/mL
- Kd [4]: 5.01 nM
- koff [4]: 0.000632 s⁻¹
- kon [4]: 126000 M⁻¹ s⁻¹
B7: DX-36698-IgG1 (DX-36698 VHH-Fc fusion antibody) (Fc fusion)
heavy: QVQLVESGGGLVQAGGSLRLSCAASVRTFSIYAMGWFRQAPGKDREFVGAISGRGYTTYYVDSVKGRFTISRDNAKNTVYLQMNSLKPEDTAVYYCAADLYGSRRYADRESYDYWGQGTQVTVSS[human IgG1 Fc cut from this listing]
notes: as for B6
